Data published in patent US20260184782A1 (TWIST BIOSCIENCE, published 2026).

T1: TIGIT (UniProt Q495A1 22-141, limits assumed)
T1 construct: construct not described; also called T cell immunoreceptor with Ig and ITIM domains
T1 sequence (looked up): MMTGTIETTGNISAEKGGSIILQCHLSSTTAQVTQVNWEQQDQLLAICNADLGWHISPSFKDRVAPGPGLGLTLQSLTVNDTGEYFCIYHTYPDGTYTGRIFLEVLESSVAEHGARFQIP

T2: TIGIT (UniProt Q495A1 22-141, limits assumed)
T2 construct: also called T cell immunoreceptor with Ig and ITIM domains; hTIGIT
T2 sequence (looked up): T1 sequence (looked up)

B1: TIGIT-29-10 VHH-Fc (Fc fusion)
chain: EVQLVESGGGLVQAGGSLRLSCAASGRTFSNYGMGWFRQAPGKEREFVSGISGSGGRTSYADSVKGRFTISADNAKNTVYLQMNSLKPEDTAVYYCAANLWYPVDRLNTGFNYWGQGTQVTVSSGGGGS[in this place human IgG1 Fc with C220S (EU numbers)]
B2: TIGIT-30-30 VHH-Fc (Fc fusion)
chain: EVQLVESGGGLVQAGGSLRLSCAASGGTFSGRGMGWFRQAPGKEREWVSSVYIFGGSTYYADSVKGRFTISADNAKNTVYLQMNSLKPEDTAVYYCANSNKPKFDWGQGTQVTVSSGGGGS[in this place human IgG1 Fc with C220S (EU numbers)]
B3: TIGIT-30-43 VHH-Fc (Fc fusion)
chain: EVQLVESGGGLVQAGGSLRLSCAASGFTFSTSWMGWFRQAPGKERELVAARNSGGNTNYADSVKGRFTISADNAKNTVYLQMNSLKPEDTAVYYCAADVWYGSTWRNWGQGTQVTVSSGGGGS[in this place human IgG1 Fc with C220S (EU numbers)]
B4: TIGIT-31-56 (VHH-Fc) (Fc fusion)
chain: EVQLVESGGGLVQPGGSLRLSCAASGRIFRRNSMGWFRQAPGKEREFVAVITRSGGGEVTTYADSVKGRFTINADNSKNTAYLQMNSLKPEDTAVYYCAMSSVTRGSSDWGQGTLVTVSTGGGGS[in this place human IgG1 Fc with C220S (EU numbers)]

Columns and labels:
TIGIT [1] = target: T1, TIGIT; assay: TIGIT:CD155 blockade ELISA, biotin-CD155 as competitor
TIGIT [2] = target: T1, TIGIT; assay: ELISA
TIGIT [3] = target: T1, TIGIT; assay: Carterra SPR, VHH-Fc
TIGIT [4] = target: T2, TIGIT; assay: SPR (Carterra), VHH-Fc
TIGIT [5] = target: T2, TIGIT; assay: TIGIT:CD155 blockade assay, competitor CD155
TIGIT [6] = target: T2, TIGIT; assay: ELISA

Binder	IC50 (TIGIT [1])	ELISA (TIGIT [2])	Kd (TIGIT [3])	koff (TIGIT [3])	kon (TIGIT [3])	Kd (TIGIT [4])	koff (TIGIT [4])	kon (TIGIT [4])	IC50 (TIGIT [5])	ELISA (TIGIT [6])
B1	0.0177 µM	5	0.032 µM	0.0049 s⁻¹	150000 M⁻¹ s⁻¹					
B2	0.0057 µM	8	0.023 µM	0.008 s⁻¹	350000 M⁻¹ s⁻¹					
B3	0.0023 µM	13.5	0.044 µM	0.013 s⁻¹	290000 M⁻¹ s⁻¹					
B4						0.046 µM	0.021 s⁻¹	460000 M⁻¹ s⁻¹	0.0015 µM	11.7
